Laboratory results published in article PMC4336329 (PLoS ONE, 2015).
Hit rate of the full screen: of about 310,000 compounds, about 2,200 (0.71%) showed an effect of 50% or more. Effects have a minus sign here. The list shows a part of the results.

The compounds below were run against human ether-à-go-go-related gene (hERG) potassium channel (human, UniProt Q12809) (assay: primary screen, population patch clamp on CHO cells stably expressing hERG).
human ether-à-go-go-related gene (hERG) potassium channel, sequence (Q12809 whole entry, looked up): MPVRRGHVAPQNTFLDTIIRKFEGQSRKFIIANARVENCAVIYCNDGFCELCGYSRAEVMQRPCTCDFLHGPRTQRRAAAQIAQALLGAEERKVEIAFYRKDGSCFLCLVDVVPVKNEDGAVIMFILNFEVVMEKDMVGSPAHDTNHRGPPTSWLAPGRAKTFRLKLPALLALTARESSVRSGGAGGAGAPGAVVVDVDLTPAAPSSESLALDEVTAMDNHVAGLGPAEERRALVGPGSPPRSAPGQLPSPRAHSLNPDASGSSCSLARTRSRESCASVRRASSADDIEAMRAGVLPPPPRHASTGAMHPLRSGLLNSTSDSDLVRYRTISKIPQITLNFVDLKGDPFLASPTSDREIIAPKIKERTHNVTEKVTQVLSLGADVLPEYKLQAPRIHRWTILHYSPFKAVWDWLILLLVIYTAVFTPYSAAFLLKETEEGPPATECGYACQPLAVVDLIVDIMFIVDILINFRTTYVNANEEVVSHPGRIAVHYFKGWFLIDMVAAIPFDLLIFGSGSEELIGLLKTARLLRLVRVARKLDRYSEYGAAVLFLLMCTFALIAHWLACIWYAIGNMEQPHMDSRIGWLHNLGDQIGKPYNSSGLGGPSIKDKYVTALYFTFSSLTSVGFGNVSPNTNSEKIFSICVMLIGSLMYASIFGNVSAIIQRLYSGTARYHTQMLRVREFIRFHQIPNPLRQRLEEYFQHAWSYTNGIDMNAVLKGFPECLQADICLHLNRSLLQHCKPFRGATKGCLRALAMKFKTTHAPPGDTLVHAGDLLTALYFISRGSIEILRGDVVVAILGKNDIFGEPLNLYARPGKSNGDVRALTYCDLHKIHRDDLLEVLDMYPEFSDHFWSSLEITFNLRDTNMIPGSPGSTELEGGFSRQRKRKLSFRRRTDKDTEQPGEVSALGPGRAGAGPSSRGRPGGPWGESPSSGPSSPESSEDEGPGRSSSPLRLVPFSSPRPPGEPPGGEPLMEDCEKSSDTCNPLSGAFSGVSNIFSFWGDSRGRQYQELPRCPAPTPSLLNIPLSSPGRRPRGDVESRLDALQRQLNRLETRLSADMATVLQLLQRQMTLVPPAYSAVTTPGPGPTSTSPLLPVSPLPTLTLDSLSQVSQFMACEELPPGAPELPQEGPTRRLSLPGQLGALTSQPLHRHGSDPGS

Row | Compound | hERG current change (%, negative = inhibition) at 1uM
1 | Br.CNc1nc2ccccc2n1CC(=O)c1ccccc1 | 13.6%
2 | CCC(C)NC(=O)C1CCN(S(=O)(=O)c2cccc3nonc23)CC1 (centres unmarked) | 13%
3 | Nc1nc2sc3c(c2cc1C(=O)NCC(=O)O)CCCC3 | 17.1%
4 | CCOC(=O)N1CCC(NS(=O)(=O)c2ccc(C)c(Cl)c2)CC1 | -3.71%
5 | O=c1c2c(ncn2C2CCCC2)n(Cc2ccccc2)c(=O)n1CCOc1ccccc1 | 13%
6 | O=C(N/N=C/c1ccccc1C(F)(F)F)c1ccc(O)cc1 | 4.73%
7 | COc1ccc(-c2cc(C(F)F)n3ncc(C(=O)N4CCN(C)CC4)c3n2)cc1 | 7.31%
8 | Cc1ccc(C2/C(=C(/O)c3ccc(OC(C)C)cc3)C(=O)C(=O)N2CCN2CCOCC2)cc1 (centres unmarked) | 4.88%
9 | Cc1cc(C)n(-c2nncc(-c3ccccc3)n2)n1 | 2.94%
10 | Cc1c(C(=O)NCc2ccco2)oc2ccc(S(=O)(=O)N3CCC4(CC3)OCCO4)cc12 | 5.6%
11 | CCN(CC)CCSc1nc(O)c(C(C)C)c(=O)[nH]1.Cl | 14.8%
12 | CN(C)CCN=Cc1c(O)n(C2CCCCCC2)c(=O)[nH]c1=O | 14%
13 | Cc1csc(CN(C)C(=O)CC2C(=O)NCCN2Cc2ccc(Cl)c(F)c2)n1 (centres unmarked) | 7.86%
14 | CCN1C(=O)[C@H]2[C@@H](c3ccc(OC)cc3)N3C(=O)CN(CC4CC4)C(=O)[C@@]3(C)[C@H]2C1=O | -9.52%
15 | O=[N+]([O-])c1ccc(-c2cnc[nH]2)cc1 | 7.93%
16 | CN(CC(=O)Nc1ccccc1Br)C(=O)c1ccccc1Cc1ccccc1 | 4.41%
17 | COCCn1nnnc1CN1CCSCC1.Cl | 19.4%
18 | Cc1ccc(C(C)C)cc1OCC(=O)Nc1ccc(N2CCCCC2)cc1 | 14.1%
19 | CCOc1ccc(N(CC(=O)Nc2ccc(C)c(C)c2)S(=O)(=O)c2c(C)[nH]c(=O)[nH]c2=O)cc1 | 10.6%
20 | CC(C)(C)OC(=O)NCCCCCc1nnc(SCc2ccc(F)cc2)o1 | 3.71%
21 | Cc1nn(C)c(C)c1CN(C)S(=O)(=O)c1ccc(F)cc1 | 1.05%
22 | O=C(CCc1c[nH]c2ccccc12)NC(Cc1c[nH]c2ccccc12)C(=O)O (centres unmarked) | 12.7%

Row | Compound | hERG current change (%, negative = inhibition) at 1uM
23 | CN1OCC(S(=O)(=O)c2ccccc2)C1c1ccccc1 (centres unmarked) | 8.4%
24 | Cl.NS(=O)(=O)c1ccc(CCNCc2cccnc2)cc1 | 9.59%
25 | CCc1nc(N[C@H](C(=O)O)C(C)C)c2oc3ccccc3c2n1 | 16%
26 | O=C(c1cc(=O)[nH]c2ccccc12)N1CCN(c2ccccc2)CC1 | 7.22%
27 | Cc1cc(Nc2nc3ccccc3nc2Cl)n(-c2ccccc2C)n1 | 2.54%
28 | COc1cccc2sc(Nc3nnc(-c4ccc(F)cc4)o3)nc12 | 3.05%
29 | O=C1NC(=O)C(=Cc2cc([N+](=O)[O-])ccc2N2CCCCC2)C(=O)N1 | 4.84%
30 | COc1ccc(COC(=O)C2CCN(S(=O)(=O)c3ccc(OC)c(OC)c3)CC2)cc1 | 4.15%
31 | CC(=O)N/N=C/c1cc2c(cc1[N+](=O)[O-])OCO2 | 8.06%
32 | O=C(/C=C/c1ccc([N+](=O)[O-])cc1)N(c1ccccn1)C1CCCCC1 | 4.69%
33 | Cn1c(SCC(=O)Nc2ccccc2Cl)nnc1C1CC1 | 9.25%
34 | Cc1cc(C)c(C)c(S(=O)(=O)N2CCN(C(=O)c3ccncc3)CC2)c1C | 6.39%
35 | CCCC(=O)Nc1nc(-c2ccc(Cl)s2)cs1 | 24.6%
36 | CCn1ncc([N+](=O)[O-])c1C(=O)NC1CCCCC1 | 13.3%
37 | CCOC(=O)CCc1c(C)nc2c(c(C)nn2C(C)(C)C)c1C | 7.54%
38 | O=C1c2ccccc2C(=O)N1CCCCN(C(=O)c1cc2ccccc2oc1=O)c1ccc(F)cc1F | 4.87%
39 | CCOC(=O)N1CCC(NC(=O)C(Cc2ccccc2)NC(=O)c2ccco2)CC1 (centres unmarked) | 5.74%
40 | CC(C)c1ccc(NC(=O)c2csnn2)cc1 | 7.02%
41 | CN(C)C(CNc1ncccn1)c1ccccc1 (centres unmarked) | 14.4%
42 | CN(Cc1ccco1)S(=O)(=O)c1csc(C(N)=O)c1 | 13.5%
43 | Oc1c(Cl)cc(Cl)cc1CNn1cnnc1 | 14.3%
44 | COc1ccc(C(C)(C)C)cc1NC(=O)C1C2C=CC(C2)C1C(=O)O (centres unmarked) | 11.6%
